Source: the supplement of paper PMC4967469
By IC50 is meant the dose at which the fit gives 50% viability; fits outside the tested doses are given as limits. AUC sums up the same curve from the lowest dose to the 256-fold higher top dose; it is 1 without any effect and falls as sensitivity rises. The top dose, if marked as inferred, comes from the curve model; the source does not state it.

Compound: CCOc1cc2ncc(C#N)c(Nc3ccc(F)c(Cl)c3)c2cc1NC(=O)/C=C/CN(C)C [EKB-569]
Experiment: Viability of human cancer cell lines after 72 h of drug (GDSC screen)
Details: top dose inferred
Procedure: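 Human cancer cell lines in 384-well plates, medium with 10% serum, drug for 72 h over a 256-fold dose range (nine 2-fold or five 4-fold steps up to the top dose). Adherent lines were fixed and stained with the nucleic acid dye Syto60, suspension lines read with resazurin; signal relative to control wells, capped at 0 and 100%. One two-parameter sigmoid per drug and line, fitted in a mixed model over all curves with the slope shared within a line.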

Cell Line | AUC | IC50 [nM]
MOLT-4 (lymphoblastic leukaemia, suspension, top dose 20 µM) | 0.315 | 425
MOLT-13 (T-cell lymphoblastic leukaemia, suspension, top dose 2.5 µM) | 0.619 | 317
MONO-MAC-6 (acute myeloid leukaemia, suspension, top dose 2.5 µM) | 0.817 | 1510
MPP-89 (mesothelioma, adherent, top dose 2.5 µM) | 0.968 | > 2500
MRK-nu-1 (breast, suspension, top dose 2.5 µM) | 0.99 | > 2500
MS751 (cervix, adherent, top dose 2.5 µM) | 0.968 | > 2500
MS-1 (small cell lung carcinoma, suspension, top dose 2.5 µM) | 0.913 | > 2500
MSTO-211H (mesothelioma, adherent, top dose 2.5 µM) | 0.99 | > 2500
MV-4-11 (leukaemia, suspension, top dose 2.5 µM) | 0.47 | 131
MY-M12 (leukaemia, suspension, top dose 2.5 µM) | 0.977 | > 2500
MZ1-PC (pancreas, adherent, top dose 2.5 µM) | 0.616 | 352
MZ2-MEL (melanoma, adherent, top dose 2.5 µM) | 0.883 | > 2500
MZ7-mel (melanoma, adherent, top dose 2.5 µM) | 0.952 | > 2500
Mewo (melanoma, adherent, top dose 2.5 µM) | 0.968 | > 2500
Mo-T (hairy cell leukaemia, suspension, top dose 2.5 µM) | 0.78 | 1050
NALM-6 (B-cell leukaemia, suspension, top dose 2.5 µM) | 0.483 | 142
NAMALWA (Burkitt lymphoma, suspension, top dose 2.5 µM) | 0.719 | 579
NB1 (neuroblastoma, semi-adherent, top dose 2.5 µM) | 0.931 | > 2500
NB5 (neuroblastoma, adherent, top dose 2.5 µM) | 0.851 | 1960
NB6 (neuroblastoma, adherent, top dose 2.5 µM) | 0.916 | > 2500
NB7 (neuroblastoma, adherent, top dose 2.5 µM) | 0.608 | 315
NB10 (neuroblastoma, adherent, top dose 2.5 µM) | 0.974 | > 2500
NB12 (neuroblastoma, adherent, top dose 2.5 µM) | 0.87 | > 2500
NB13 (neuroblastoma, adherent, top dose 2.5 µM) | 0.98 | > 2500
NB14 (neuroblastoma, adherent, top dose 2.5 µM) | 0.987 | > 2500

Cell Line | AUC | IC50 [nM]
NB17 (neuroblastoma, adherent, top dose 2.5 µM) | 0.934 | > 2500
NB69 (neuroblastoma, adherent, top dose 2.5 µM) | 0.833 | 1370
NB(TU)1-10 (neuroblastoma, adherent, top dose 2.5 µM) | 0.987 | > 2500
NB-4 (acute myeloid leukaemia, suspension, top dose 2.5 µM) | 0.491 | 148
NCC021 (kidney, adherent, top dose 2.5 µM) | 0.85 | 2400
NCI-H23 (lung adenocarcinoma, adherent, top dose 2.5 µM) | 0.981 | > 2500
NCI-H28 (mesothelioma, adherent, top dose 2.5 µM) | 0.96 | > 2500
NCI-H64 (small cell lung carcinoma, suspension, top dose 2.5 µM) | 0.975 | > 2500
NCI-H69 (small cell lung carcinoma, suspension, top dose 2.5 µM) | 0.982 | > 2500
NCI-H82 (small cell lung carcinoma, suspension, top dose 2.5 µM) | 0.99 | > 2500
NCI-H187 (small cell lung carcinoma, suspension, top dose 2.5 µM) | 0.984 | > 2500
NCI-H196 (small cell lung carcinoma, adherent, top dose 2.5 µM) | 0.947 | > 2500
NCI-H209 (small cell lung carcinoma, suspension, top dose 2.5 µM) | 0.842 | 1950
NCI-H211 (small cell lung carcinoma, adherent, top dose 2.5 µM) | 0.981 | > 2500
NCI-H226 (lung squamous cell carcinoma, adherent, top dose 2.5 µM) | 0.961 | > 2500
NCI-H292 (lung adenocarcinoma, adherent, top dose 2.5 µM) | 0.876 | > 2500
NCI-H322M (lung adenocarcinoma, suspension, top dose 2.5 µM) | 0.888 | > 2500
NCI-H345 (small cell lung carcinoma, suspension, top dose 2.5 µM) | 0.99 | > 2500
NCI-H358 (lung adenocarcinoma, adherent, top dose 2.5 µM) | 0.497 | 153
NCI-H441 (lung adenocarcinoma, adherent, top dose 2.5 µM) | 0.962 | > 2500
NCI-H446 (small cell lung carcinoma, semi-adherent, top dose 2.5 µM) | 0.907 | > 2500
NCI-H460 (large cell lung carcinoma, adherent, top dose 2.5 µM) | 0.99 | > 2500
NCI-H510A (small cell lung carcinoma, semi-adherent, top dose 2.5 µM) | 0.99 | > 2500
NCI-H520 (lung squamous cell carcinoma, adherent, top dose 2.5 µM) | 0.869 | 2440
NCI-H522 (lung adenocarcinoma, adherent, top dose 2.5 µM) | 0.967 | > 2500

Cell Line | AUC | IC50 [nM]
NCI-H524 (small cell lung carcinoma, suspension, top dose 2.5 µM) | 0.918 | > 2500
NCI-H526 (small cell lung carcinoma, suspension, top dose 2.5 µM) | 0.924 | > 2500
NCI-H596 (lung adenocarcinoma, adherent, top dose 2.5 µM) | 0.732 | 887
NCI-H630 (large intestine, adherent, top dose 20 µM) | 0.788 | 9510
NCI-H647 (non-small cell lung carcinoma, adherent, top dose 2.5 µM) | 0.771 | 1000
NCI-H650 (lung adenocarcinoma, adherent, top dose 2.5 µM) | 0.905 | > 2500
NCI-H661 (large cell lung carcinoma, adherent, top dose 2.5 µM) | 0.852 | > 2500
NCI-H716 (large intestine, suspension, top dose 20 µM) | 0.781 | 10600
NCI-H720 (lung carcinoid, suspension, top dose 2.5 µM) | 0.992 | > 2500
NCI-H727 (lung carcinoid, adherent, top dose 2.5 µM) | 0.767 | 1620
NCI-H747 (large intestine, adherent, top dose 20 µM) | 0.234 | 174
NCI-H748 (small cell lung carcinoma, suspension, top dose 2.5 µM) | 0.959 | > 2500
NCI-H810 (large cell lung carcinoma, adherent, top dose 2.5 µM) | 0.956 | > 2500
NCI-H838 (lung adenocarcinoma, adherent, top dose 2.5 µM) | 0.986 | > 2500
NCI-H841 (small cell lung carcinoma, adherent, top dose 2.5 µM) | 0.956 | > 2500
NCI-H847 (small cell lung carcinoma, adherent, top dose 2.5 µM) | 0.719 | 565
NCI-H1048 (small cell lung carcinoma, adherent, top dose 2.5 µM) | 0.924 | > 2500
NCI-H1092 (small cell lung carcinoma, suspension, top dose 2.5 µM) | 0.977 | > 2500
NCI-H1155 (large cell lung carcinoma, suspension, top dose 2.5 µM) | 0.981 | > 2500
NCI-H1299 (large cell lung carcinoma, adherent, top dose 2.5 µM) | 0.928 | > 2500
NCI-H1304 (small cell lung carcinoma, suspension, top dose 2.5 µM) | 0.985 | > 2500
NCI-H1355 (lung adenocarcinoma, adherent, top dose 2.5 µM) | 0.968 | > 2500
NCI-H1395 (lung adenocarcinoma, adherent, top dose 2.5 µM) | 0.982 | > 2500
NCI-H1417 (small cell lung carcinoma, suspension, top dose 2.5 µM) | 0.894 | > 2500
